Assay results published in PubChem BioAssay AID504333 (National Center for Advancing Translational Sciences (NCATS), 2011).
Among all 360,000 compounds or so, about 16,000 (4.4%) were called active. Inconclusive results, whose numbers are uncertain, are shown with a selection of clear calls. The call rests on the fitted dose curve; in most records, active means well fitted inhibition curve with a large enough effect; inconclusive means small, poorly fitted or top-dose-only effect; inactive means no such curve, though single readings can be large or run the other way. Potencies beside an inconclusive call are fits to weak or partial responses and may not hold up.
Further: nearly all actives have a fitted effect of over 60% in size.
On the % scale 0 is the no-effect control and ±100 the full control effect; potency means the concentration at half of the fitted maximal effect; tags describe the fitted curve by direction and shape.

The molecules below were run against Bromodomain adjacent to zinc finger domain protein 2B (Homo sapiens) (UniProt Q9UIF8) (assay: qHTS Assay for Inhibitors of BAZ2B). Conditions: AlphaScreen BAZ2B-H3K14Ac peptide displacement; activity change, negative = inhibition: at 114 µM (top of the series).
Sequence of UniProt Q9UIF8 (Q9UIF8 whole entry, looked up, the tested form may be a part): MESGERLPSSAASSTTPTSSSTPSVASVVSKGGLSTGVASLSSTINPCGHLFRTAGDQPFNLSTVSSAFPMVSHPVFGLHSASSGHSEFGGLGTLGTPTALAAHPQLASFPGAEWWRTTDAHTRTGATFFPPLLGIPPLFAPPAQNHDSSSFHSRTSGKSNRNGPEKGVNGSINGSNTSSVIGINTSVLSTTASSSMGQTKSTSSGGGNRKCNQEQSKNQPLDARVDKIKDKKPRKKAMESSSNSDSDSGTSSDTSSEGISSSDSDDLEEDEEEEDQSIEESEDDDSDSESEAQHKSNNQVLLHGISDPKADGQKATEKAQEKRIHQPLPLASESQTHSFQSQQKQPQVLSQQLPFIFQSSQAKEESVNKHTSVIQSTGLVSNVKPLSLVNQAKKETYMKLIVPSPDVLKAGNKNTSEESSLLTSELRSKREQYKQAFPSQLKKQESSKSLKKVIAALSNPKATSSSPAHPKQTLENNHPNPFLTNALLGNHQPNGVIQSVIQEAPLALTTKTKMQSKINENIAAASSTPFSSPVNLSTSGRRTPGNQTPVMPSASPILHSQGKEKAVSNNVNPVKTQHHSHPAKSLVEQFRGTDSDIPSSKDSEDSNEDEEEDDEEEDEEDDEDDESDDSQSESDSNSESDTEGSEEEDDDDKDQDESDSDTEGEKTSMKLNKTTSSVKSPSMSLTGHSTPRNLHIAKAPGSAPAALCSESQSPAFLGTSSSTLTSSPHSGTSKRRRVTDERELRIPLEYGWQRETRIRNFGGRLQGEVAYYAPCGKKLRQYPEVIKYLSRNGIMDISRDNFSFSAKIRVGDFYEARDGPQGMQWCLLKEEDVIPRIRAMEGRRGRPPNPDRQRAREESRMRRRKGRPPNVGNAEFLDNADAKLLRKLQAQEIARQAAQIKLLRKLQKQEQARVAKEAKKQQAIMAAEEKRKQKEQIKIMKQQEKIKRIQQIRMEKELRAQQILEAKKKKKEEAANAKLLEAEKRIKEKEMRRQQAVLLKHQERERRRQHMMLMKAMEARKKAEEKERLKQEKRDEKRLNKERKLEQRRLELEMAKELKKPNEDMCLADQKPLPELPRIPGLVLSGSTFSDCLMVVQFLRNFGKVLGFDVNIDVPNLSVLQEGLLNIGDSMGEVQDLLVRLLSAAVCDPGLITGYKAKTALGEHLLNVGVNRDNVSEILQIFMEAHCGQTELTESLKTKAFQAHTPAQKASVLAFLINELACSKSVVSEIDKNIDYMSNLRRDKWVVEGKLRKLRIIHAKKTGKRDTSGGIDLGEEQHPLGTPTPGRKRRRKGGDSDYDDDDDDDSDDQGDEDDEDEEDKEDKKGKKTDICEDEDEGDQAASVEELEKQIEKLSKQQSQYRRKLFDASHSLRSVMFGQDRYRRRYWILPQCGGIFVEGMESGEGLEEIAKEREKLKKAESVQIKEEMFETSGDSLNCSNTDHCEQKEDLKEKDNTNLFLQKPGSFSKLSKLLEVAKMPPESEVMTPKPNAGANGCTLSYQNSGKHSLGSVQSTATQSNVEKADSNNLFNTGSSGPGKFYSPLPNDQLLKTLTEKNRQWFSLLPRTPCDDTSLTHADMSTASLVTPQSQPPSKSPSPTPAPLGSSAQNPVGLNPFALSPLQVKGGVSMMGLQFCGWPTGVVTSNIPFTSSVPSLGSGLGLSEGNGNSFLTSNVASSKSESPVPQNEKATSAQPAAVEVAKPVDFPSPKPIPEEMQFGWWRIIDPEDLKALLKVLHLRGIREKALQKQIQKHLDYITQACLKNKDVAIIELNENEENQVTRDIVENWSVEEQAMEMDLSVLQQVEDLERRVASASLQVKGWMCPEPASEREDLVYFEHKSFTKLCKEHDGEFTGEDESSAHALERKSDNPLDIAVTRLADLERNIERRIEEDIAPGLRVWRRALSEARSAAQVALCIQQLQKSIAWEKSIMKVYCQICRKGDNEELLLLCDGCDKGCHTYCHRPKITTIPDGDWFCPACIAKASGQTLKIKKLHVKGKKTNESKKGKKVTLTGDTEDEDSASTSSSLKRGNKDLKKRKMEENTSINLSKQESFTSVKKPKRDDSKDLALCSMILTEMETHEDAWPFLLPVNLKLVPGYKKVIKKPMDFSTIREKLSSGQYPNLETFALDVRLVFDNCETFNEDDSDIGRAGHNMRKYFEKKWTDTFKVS
How it was run: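 Compounds, titrated to a top concentration of 110 uM, were incubated 30 min at room temperature with preformed BAZ2B/acetyl-K14 H3 peptide complex (50 nM each). Proximity signal was measured by AlphaScreen after 20 min with beads.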
With CCOC(=O)CN1CC23C=CC(O2)C(C(=O)O)C3C1=O (centres undefined) the “activity change, negative = inhibition” value was inactive: -18.3%.
O=C(Nc1ccccc1)c1cccc2c(=O)c3c([nH]c12)CCCC3 was tested, and the “activity change, negative = inhibition” value was inactive: -0.4%.
For Cc1cc(Nc2cccc(Cl)c2)n2ncnc2n1, the “activity change, negative = inhibition” value was inactive: 7.65%.
O=C(c1ccc(S(=O)(=O)NCC2CCCO2)cc1)N1CCN(c2cccc(Cl)c2)CC1 (centres undefined) was tested, and the Potency was inconclusive: 89.1 µM [inhibitor, single point].
In the case of COc1ccc(-c2cn(-c3ccccc3)c3[n+]2CCS3)cc1, the Potency is reported as “inactive”.
In the case of COc1ccc(Cl)cc1NC(=O)Cn1ccn(Cc2ccc(C)cc2)c(=O)c1=O, the “activity change, negative = inhibition” value is reported as inactive: -12.5%.
CC(=O)c1cccc(NC(=O)C(C)OC(=O)c2ccc3ncsc3c2)c1 (centres undefined) was tested, and the Potency was inconclusive: 89.1 µM [inhibitor, single point].
With COC(=O)/C(=C/c1ccc2c(c1)c1ccccc1n2C)NC(=O)c1ccccc1 the “activity change, negative = inhibition” value was inactive: -12.4%.
In the case of CC(=O)c1cccc(Nc2nc(N3CCOCC3)nc(N3CCOCC3)n2)c1, the Potency is reported as inconclusive: 89.1 µM [inhibitor, single point].
CCOc1ccc(C(=O)NCCn2cc(SCC(=O)NCCc3ccc(OC)c(OC)c3)c3ccccc32)cc1 was tested, and the Potency was inconclusive: 35.5 µM [inhibitor, full curve, poor fit].
With Cc1cccc(C(=O)NNC2=C(C(=O)C(F)(F)F)CCC2)c1O the Potency was active: 17.8 µM.
In the case of O=C(CC1N=C2c3ccccc3N=C(SCc3ccccc3Cl)N2C1=O)NCc1ccco1 (centres undefined), the Potency is reported as active: 50.1 µM.
CCOc1ccccc1NC(=O)C1CCN(S(=O)(=O)c2c(C)noc2/C=C/c2ccc(C)cc2)CC1 was tested, and the “activity change, negative = inhibition” value was inactive: 2.32%.
For CCOc1ccc(C(=O)N/N=C(\c2ccccc2)c2ccccn2)cc1, the Potency was active: 79.4 µM.
In the case of CCOC(=O)C1CCN(C(c2ccccc2OC)c2c(O)cc(C)n(CCOC)c2=O)CC1 (centres undefined), the “activity change, negative = inhibition” value is reported as inactive: 2.03%.
In the case of Cc1ccc(OCc2ccc(C(=O)NCc3cccnc3)cc2)cc1C, the “activity change, negative = inhibition” value is reported as inactive: -21.3%.
For C/C(CCCO)=N/Nc1ccc([N+](=O)[O-])cc1[N+](=O)[O-], the Potency was inconclusive: 50.1 µM [inhibitor, partial curve].
For CCN(CC)C(=O)C(C(=O)c1cccc([N+](=O)[O-])c1)n1cc(Cl)ccc1=O (centres undefined), the “activity change, negative = inhibition” value was inactive: 3.83%.
CCN(CCNC(=O)CN1CCN(Cc2ccc(Cl)cc2)C1=O)c1ccccc1 was tested, and the Potency was inconclusive: 70.8 µM [inhibitor, single point].
With Cc1cc(C)c2c(CC(=O)N(Cc3ccc(N(C)C)cc3)Cc3ccco3)coc2c1 the Potency was active: 10 µM.
In the case of O=C(CSc1nc2c(c(=O)[nH]1)CCC2)Nc1ccccc1F, the Potency is reported as inconclusive: 70.8 µM [inhibitor, single point].
In the case of CCOC(=O)c1c(C)[nH]c(N=Nc2ccccc2C)c1C, the Potency is reported as active: 31.6 µM.
Cc1c(Cl)ccc2sc(N3CCN(C(=O)c4ccco4)CC3)nc12 was tested, and the Potency was inconclusive: 56.2 µM [inhibitor, partial curve].
With COc1cc(-c2noc(C)c2C#Cc2ccccn2)cc(OC)c1OC the Potency was inconclusive: 89.1 µM [inhibitor, single point].
In the case of Cc1nc2nc[nH]c2cc1Br, the “activity change, negative = inhibition” value is reported as inactive: -14.3%.
With O=S(=O)(NCCc1cn2ccccc2n1)c1ccc(-c2ccccc2)cc1 the Potency was inconclusive: 50.1 µM [inhibitor, partial curve].
With Cc1ccccc1OCC(=O)N/N=C/c1ccco1 the Potency was inconclusive: 100 µM [inhibitor, single point].
For CC(C)(C)NC(=O)C(c1cccs1)N(CC1CCCO1)C(=O)c1ccc(-c2ccccc2)[nH]1 (centres undefined), the Potency was inconclusive: 35.5 µM [inhibitor, full curve].
With Cc1ccc([N+](=O)[O-])cc1N=C1C(=O)Nc2ccccc21 the Potency was inconclusive: 79.4 µM [inhibitor, single point].
With COc1ccc(C2N(c3ccc(C)cc3)CCN2c2ccc(C)cc2)cc1O the Potency was active: 31.6 µM.
With O=C(NC1CCSC1=O)C1CCCCC1 (centres undefined) the “activity change, negative = inhibition” value was inactive: -5.97%.
For Cc1c(C(=O)NNC(=S)Nc2cccc(Cl)c2)nnn1-c1ccccc1, the Potency was active: 56.2 µM.
NN(CCO)C(=S)Nc1ccc(Cl)cc1 was tested, and the Potency was inconclusive: 79.4 µM [inhibitor, single point].
With COc1ccc(/C=N/Nc2nccnc2Cl)c(OC)c1 the Potency was inconclusive: 79.4 µM [inhibitor, partial curve].
With O=C(Cn1cnc2cc([N+](=O)[O-])ccc2c1=O)Nc1ccc2c(c1)OCO2 the Potency was inconclusive: 79.4 µM [inhibitor, single point].
COc1ccc2cc(C(=O)NCc3ccco3)c(=Nc3ccc(C(=O)O)cc3)oc2c1 was tested, and the Potency was inconclusive: 56.2 µM [inhibitor, partial curve].
In the case of Cc1[nH]c2ccccc2c1N=Nc1ccccc1C(=O)O, the Potency is reported as inconclusive: 70.8 µM [inhibitor, single point].
Cc1ccc(-n2nc3c(N4CCC(C(=O)NC(C)C)CC4)nnc(C)c3c2C)cc1 was tested, and the “activity change, negative = inhibition” value was inactive: -5.38%.
For Fc1ccccc1N=C1Nc2cccc3cccc1c23, the Potency was inconclusive: 25.1 µM [inhibitor, full curve].
COc1ccc(CNc2ncc(-c3ccc(Cl)cc3)n2C)c(OC)c1OC was tested, and the Potency was inconclusive: 56.2 µM [inhibitor, partial curve].
With O=C(Nc1ccc(Cl)cc1)N1CCc2ccccc2C1 the Potency was inconclusive: 7.94 µM [inhibitor, full curve, poor fit].
For Brc1ccc(OCCCN2CCOCC2)cc1, the Potency was inconclusive: 31.6 µM [inhibitor, single point].
Cn1c(SCc2ccc(F)cc2)nc2ccc(C(=O)NCc3ccc(F)cc3)cc21 was tested, and the “activity change, negative = inhibition” value was inactive: 2.09%.
CC1C(=O)N2CCCc3cc(S(=O)(=O)N(C)Cc4ccccc4)cc1c32 (centres undefined) was tested, and the Potency was inconclusive: 39.8 µM [inhibitor, single point].
For O=C(NNC(=O)c1cccs1)c1csc(N2CCOCC2)n1, the Potency was inconclusive: 100 µM [inhibitor, single point].
For CCOc1ccc(Br)cc1CNc1ccc2c(c1)OCCO2, the Potency was active: 25.1 µM.
With O=C(/C=C/c1cccs1)Nc1ccc(N2CCOCC2)c(S(=O)(=O)Nc2cc(Cl)ccc2Cl)c1 the “activity change, negative = inhibition” value was inactive: -26.9%.
For Cc1ncc(C(=O)O)c(C(=O)O)c1N, the Potency was inconclusive: 79.4 µM [inhibitor, single point].
In the case of O=C(N/N=C/c1ccc(-c2ccccc2)o1)c1ccccc1O, the “activity change, negative = inhibition” value is reported as inactive: -7.35%.
